The list shows a part of the results.

The subject of the first assay is HSkMC (human skeletal muscle cells). As to the kind of experiment: cytotoxicity call (relative viability < 0.9). The conditions noted are these: 10 µM.
As to `NC(=O)NC1CCCCC1`, the cytotoxicity call was “inactive”.

In the case of `CN1CCN(C(=O)C[C@@H]2C=C[C@H](NC(=O)Cc3ccccn3)[C@@H](CO)O2)CC1`, the cytotoxicity call was “inactive”.

For `CCC(=O)Nc1ccc2c(c1)OC[C@@H](C)N(C(=O)CN1CCOCC1)C[C@H](C)[C@@H](OC)CN(C)C2=O`, the cytotoxicity call is “inactive”.

Consider `CC(=O)O[C@H]1CC(C)(C)C[C@H]2[C@]13CO[C@@]21CC[C@@H]2[C@@]4(C)CC[C@H](O[C@@H]5O[C@H](C(=O)O)[C@@H](O)[C@H](O[C@@H]6O[C@H](CO)[C@H](O)[C@H](O)[C@H]6O[C@@H]6O[C@@H](C)[C@H](O)[C@@H](O)[C@H]6O)[C@H]5O[C@@H]5O[C@H](CO)[C@@H](O)[C@H](O)[C@H]5O)C(C)(C)[C@@H]4CC[C@@]2(C)[C@]1(C)C[C@H]3O`, for which the cytotoxicity call was “inactive”.

`C[C@@H]1CN([C@@H](C)CO)C(=O)c2cc(NC(=O)C3CCCCC3)ccc2O[C@@H]1CN(C)C(=O)Nc1ccc(C(F)(F)F)cc1`: the cytotoxicity call is “inactive”.

As for `C[C@@H]1CN([C@@H](C)CO)S(=O)(=O)c2ccc(C#Cc3cccc(F)c3)cc2O[C@@H]1CN(C)CC1CC1`, the cytotoxicity call is “inactive”.

Consider `CS(=O)(=O)c1cc(F)ccc1N`, for which the cytotoxicity call is “inactive”.

For `C[C@H](CO)N1C[C@H](C)[C@@H](CN(C)Cc2cncnc2)Oc2cc(-c3ccccc3F)ccc2S1(=O)=O`, the cytotoxicity call was “inactive”.

As to `Cc1nsc(-c2ccccc2)n1`, the cytotoxicity call is “inactive”.

Turning to `C[C@@H]1CN([C@@H](C)CO)C(=O)c2cccc(NC(=O)c3cnccn3)c2O[C@H]1CN(C)C(=O)Nc1ccccc1`, the cytotoxicity call was “inactive”.

In the case of `CC(=O)N1CCC[C@@H]1C(=O)O`, the cytotoxicity call is “inactive”.

`Cc1ccccc1NCC(=O)NN`: the cytotoxicity call is “inactive”.

For the molecule `C[C@@H]1CCCCO[C@@H](CN(C)C(=O)NC2CCCCC2)[C@@H](C)CN([C@H](C)CO)C(=O)c2cc(NC(=O)NC3CCCCC3)ccc2O1`, the cytotoxicity call is “inactive”.

As for `CC(=O)N(CC(O)CO)c1c(I)c(C(=O)NCCO)c(I)c(C(=O)NCC(O)CO)c1I` (stereo not drawn), the cytotoxicity call is “inactive”.

`COc1ccc(NC(=O)Nc2ccc3c(c2)C(=O)N([C@H](C)CO)C[C@H](C)[C@@H](CN(C)Cc2ccc(C(F)(F)F)cc2)O3)cc1`: the cytotoxicity call is “inactive”.

In the case of `C[C@H]1CN([C@@H](C)CO)C(=O)Cc2cc(NS(=O)(=O)c3ccc(F)cc3)ccc2O[C@@H]1CN(C)Cc1ccc(Oc2ccccc2)cc1`, the cytotoxicity call was “inactive”.

Consider `C[C@@H]1CN([C@H](C)CO)C(=O)c2cc(NC(=O)Nc3ccccc3)ccc2O[C@@H](C)CCCCO[C@@H]1CN(C)Cc1ccncc1`, for which the cytotoxicity call was “inactive”.

Regarding `CCCn1c(N)nc2c1c(=O)n(C)c(=O)n2C`, the cytotoxicity call is “inactive”.

Turning to `CS(=O)(=O)N1[C@@H]2Cn3c(ccc(-c4ccc(F)cc4)c3=O)[C@H]1[C@@H](C(=O)N1CCOCC1)[C@@H]2CO`, the cytotoxicity call was “inactive”.

As for `C[C@@H]1CN([C@@H](C)CO)C(=O)c2cc(NC(=O)Cn3cnnn3)ccc2O[C@@H]1CN(C)Cc1ccc(Oc2ccccc2)cc1`, the cytotoxicity call was “inactive”.

`C=CCN1C(=O)[C@@]2(O[C@@H](CCO)[C@H]([Si](C)(C)c3ccc(OC)cc3)[C@H]2C)c2cc(N(C=O)c3ccccc3)ccc21`: the cytotoxicity call is “active”.

Turning to `COc1ccc(NC(=O)N(C)C[C@H]2Oc3c(NC(=O)C4CC4)cccc3C(=O)N([C@@H](C)CO)C[C@@H]2C)cc1`, the cytotoxicity call was “inactive”.

Regarding `COc1ccc(S(=O)(=O)N(C)C[C@@H]2OCCCC[C@@H](C)Oc3ccc(NC(=O)c4ccccc4)cc3C(=O)N([C@H](C)CO)C[C@H]2C)cc1`, the cytotoxicity call was “inactive”.

For `C[C@H]1CCCCO[C@@H](CN(C)CC2CCCCC2)[C@@H](C)CN([C@@H](C)CO)C(=O)c2cc(NC(=O)Nc3ccccc3)ccc2O1`, the cytotoxicity call is “inactive”.

Take `CC1=C(C(N)=O)[C@@H](c2cccnc2)n2nnnc2N1`: the cytotoxicity call was “inactive”.

As to `C[C@H](CO)N1C[C@H](C)[C@H](CN(C)Cc2ccc(-c3ccccc3)cc2)Oc2ccc(NC(=O)Cc3ccccc3)cc2C1=O`, the cytotoxicity call was “inactive”.

Consider `CC(C)(C)[S@@](=O)N1Cc2cc(C(=O)NCCc3ccncc3)nc(-c3cccc(-c4ccc(C#N)cc4)c3)c2[C@H]1CCO`, for which the cytotoxicity call is “inactive”.

As to `Cc1cccc(OC[C@H](O)Cn2c(N3CCN(C)CC3)nc3c2c(=O)n(C)c(=O)n3C)c1`, the cytotoxicity call is “inactive”.

The next assay deals with HepG2. In words: cytotoxicity call (relative viability < 0.9). To be noted: 10 µM.
On to `O=C(C[C@@H]1CC[C@@H](NS(=O)(=O)c2ccccc2F)[C@H](CO)O1)NCCCN1CCOCC1`, for which the cytotoxicity call was “inactive”.

As to `Cc1noc(C)c1NC(=O)Nc1ccc2c(c1)CC(=O)N([C@@H](C)CO)C[C@H](C)[C@H](CN(C)C(=O)NC(C)C)O2`, the cytotoxicity call was “inactive”.

Turning to `NC(=O)CCN1C(=O)[C@@H]2[C@@H](C1=O)[C@@H]1C=C[C@@H]2C1`, the cytotoxicity call is “inactive”.

Regarding `CO[C@@H]1CN(C)C(=O)c2cc(NS(=O)(=O)c3ccccc3C)ccc2OC[C@@H](C)N(S(C)(=O)=O)C[C@@H]1C`, the cytotoxicity call is “inactive”.

In the case of `C[C@H]1O[C@@H]2[C@H](O[C@@H]1C)N(S(C)(=O)=O)CCN2S(C)(=O)=O`, the cytotoxicity call is “inactive”.

With `C[C@@H]1CCCCO[C@@H](CN(C)C(=O)C2CCCCC2)[C@@H](C)CN([C@H](C)CO)C(=O)c2cc(NC(=O)c3ccccc3)ccc2O1`, the cytotoxicity call is “inactive”.

Consider `Cn1cccc1C(=O)N[C@H]1CN(S(C)(=O)=O)[C@H]2CCCO[C@@H]12`, for which the cytotoxicity call is “inactive”.

Take `CCS(=O)(=O)Nc1ccc2c(c1)C(=O)N(C)C[C@@H](OC)[C@@H](C)CN(C(=O)c1ccc3c(c1)OCO3)[C@H](C)CO2`: the cytotoxicity call was “inactive”.

`C[C@H](CO)N1C[C@H](C)[C@@H](CN(C)S(=O)(=O)c2cn(C)cn2)Oc2c(NC(=O)c3ccc(-c4nccs4)cc3)cccc2C1=O`: the cytotoxicity call was “inactive”.

As to `CCc1cccc2cc[nH]c12`, the cytotoxicity call is “inactive”.

Consider `C[C@@H]1CN([C@@H](C)CO)C(=O)c2cc(NC(=O)Cc3ccccc3)ccc2O[C@@H](C)CCCCO[C@H]1CN(C)S(=O)(=O)c1cccs1`, for which the cytotoxicity call was “inactive”.

`C[C@@H]1CN([C@H](C)CO)C(=O)c2cc(NC(=O)Nc3cccc4ccccc34)ccc2O[C@@H]1CN(C)S(=O)(=O)c1cccs1`: the cytotoxicity call is “inactive”.

As to `NC(=O)NC1CCCCC1`, the cytotoxicity call was “inactive”.

`CN1CCN(C(=O)C[C@@H]2C=C[C@H](NC(=O)Cc3ccccn3)[C@@H](CO)O2)CC1`: the cytotoxicity call is “inactive”.

For `CCC(=O)Nc1ccc2c(c1)OC[C@@H](C)N(C(=O)CN1CCOCC1)C[C@H](C)[C@@H](OC)CN(C)C2=O`, the cytotoxicity call was “inactive”.

With `CC(=O)O[C@H]1CC(C)(C)C[C@H]2[C@]13CO[C@@]21CC[C@@H]2[C@@]4(C)CC[C@H](O[C@@H]5O[C@H](C(=O)O)[C@@H](O)[C@H](O[C@@H]6O[C@H](CO)[C@H](O)[C@H](O)[C@H]6O[C@@H]6O[C@@H](C)[C@H](O)[C@@H](O)[C@H]6O)[C@H]5O[C@@H]5O[C@H](CO)[C@@H](O)[C@H](O)[C@H]5O)C(C)(C)[C@@H]4CC[C@@]2(C)[C@]1(C)C[C@H]3O`, the cytotoxicity call was “active”.

Take `C[C@@H]1CN([C@@H](C)CO)C(=O)c2cc(NC(=O)C3CCCCC3)ccc2O[C@@H]1CN(C)C(=O)Nc1ccc(C(F)(F)F)cc1`: the cytotoxicity call is “inactive”.

On to `C[C@@H]1CN([C@@H](C)CO)S(=O)(=O)c2ccc(C#Cc3cccc(F)c3)cc2O[C@@H]1CN(C)CC1CC1`, for which the cytotoxicity call was “inactive”.

As to `CS(=O)(=O)c1cc(F)ccc1N`, the cytotoxicity call is “inactive”.

Take `C[C@H](CO)N1C[C@H](C)[C@@H](CN(C)Cc2cncnc2)Oc2cc(-c3ccccc3F)ccc2S1(=O)=O`: the cytotoxicity call was “inactive”.

For the molecule `Cc1nsc(-c2ccccc2)n1`, the cytotoxicity call was “inactive”.

As for `C[C@@H]1CN([C@@H](C)CO)C(=O)c2cccc(NC(=O)c3cnccn3)c2O[C@H]1CN(C)C(=O)Nc1ccccc1`, the cytotoxicity call is “inactive”.

With `CC(=O)N1CCC[C@@H]1C(=O)O`, the cytotoxicity call was “inactive”.

With `Cc1ccccc1NCC(=O)NN`, the cytotoxicity call is “inactive”.

Take `C[C@@H]1CCCCO[C@@H](CN(C)C(=O)NC2CCCCC2)[C@@H](C)CN([C@H](C)CO)C(=O)c2cc(NC(=O)NC3CCCCC3)ccc2O1`: the cytotoxicity call is “inactive”.

As to `CC(=O)N(CC(O)CO)c1c(I)c(C(=O)NCCO)c(I)c(C(=O)NCC(O)CO)c1I` (stereo not drawn), the cytotoxicity call was “inactive”.

For the molecule `COc1ccc(NC(=O)Nc2ccc3c(c2)C(=O)N([C@H](C)CO)C[C@H](C)[C@@H](CN(C)Cc2ccc(C(F)(F)F)cc2)O3)cc1`, the cytotoxicity call was “inactive”.

As for `C[C@H]1CN([C@@H](C)CO)C(=O)Cc2cc(NS(=O)(=O)c3ccc(F)cc3)ccc2O[C@@H]1CN(C)Cc1ccc(Oc2ccccc2)cc1`, the cytotoxicity call is “inactive”.

On to `C[C@@H]1CN([C@H](C)CO)C(=O)c2cc(NC(=O)Nc3ccccc3)ccc2O[C@@H](C)CCCCO[C@@H]1CN(C)Cc1ccncc1`, for which the cytotoxicity call is “inactive”.

As for `CCCn1c(N)nc2c1c(=O)n(C)c(=O)n2C`, the cytotoxicity call was “inactive”.

Regarding `CS(=O)(=O)N1[C@@H]2Cn3c(ccc(-c4ccc(F)cc4)c3=O)[C@H]1[C@@H](C(=O)N1CCOCC1)[C@@H]2CO`, the cytotoxicity call is “inactive”.

Turning to `C[C@@H]1CN([C@@H](C)CO)C(=O)c2cc(NC(=O)Cn3cnnn3)ccc2O[C@@H]1CN(C)Cc1ccc(Oc2ccccc2)cc1`, the cytotoxicity call is “inactive”.

Take `C=CCN1C(=O)[C@@]2(O[C@@H](CCO)[C@H]([Si](C)(C)c3ccc(OC)cc3)[C@H]2C)c2cc(N(C=O)c3ccccc3)ccc21`: the cytotoxicity call is “active”.

As to `COc1ccc(NC(=O)N(C)C[C@H]2Oc3c(NC(=O)C4CC4)cccc3C(=O)N([C@@H](C)CO)C[C@@H]2C)cc1`, the cytotoxicity call was “inactive”.

For `COc1ccc(S(=O)(=O)N(C)C[C@@H]2OCCCC[C@@H](C)Oc3ccc(NC(=O)c4ccccc4)cc3C(=O)N([C@H](C)CO)C[C@H]2C)cc1`, the cytotoxicity call was “inactive”.

For `C[C@H]1CCCCO[C@@H](CN(C)CC2CCCCC2)[C@@H](C)CN([C@@H](C)CO)C(=O)c2cc(NC(=O)Nc3ccccc3)ccc2O1`, the cytotoxicity call was “active”.

On to `CC1=C(C(N)=O)[C@@H](c2cccnc2)n2nnnc2N1`, for which the cytotoxicity call was “inactive”.

On to `C[C@H](CO)N1C[C@H](C)[C@H](CN(C)Cc2ccc(-c3ccccc3)cc2)Oc2ccc(NC(=O)Cc3ccccc3)cc2C1=O`, for which the cytotoxicity call is “active”.

On to `CC(C)(C)[S@@](=O)N1Cc2cc(C(=O)NCCc3ccncc3)nc(-c3cccc(-c4ccc(C#N)cc4)c3)c2[C@H]1CCO`, for which the cytotoxicity call was “inactive”.

With `Cc1cccc(OC[C@H](O)Cn2c(N3CCN(C)CC3)nc3c2c(=O)n(C)c(=O)n3C)c1`, the cytotoxicity call is “inactive”.

The values are drawn from the antibiotic and cytotoxicity screens of Wong et al. (2023).
